The record followed here is article PMC9588639 (Journal of thrombosis and haemostasis : JTH, 2022).

This assay concerns the target human GPIbα LBD (mature protein residues 1-290) W230L (human, UniProt P07359 17-306, W230L). Kind of assay: BLI.
UniProt P07359, sequence (P07359 17-306 W246L): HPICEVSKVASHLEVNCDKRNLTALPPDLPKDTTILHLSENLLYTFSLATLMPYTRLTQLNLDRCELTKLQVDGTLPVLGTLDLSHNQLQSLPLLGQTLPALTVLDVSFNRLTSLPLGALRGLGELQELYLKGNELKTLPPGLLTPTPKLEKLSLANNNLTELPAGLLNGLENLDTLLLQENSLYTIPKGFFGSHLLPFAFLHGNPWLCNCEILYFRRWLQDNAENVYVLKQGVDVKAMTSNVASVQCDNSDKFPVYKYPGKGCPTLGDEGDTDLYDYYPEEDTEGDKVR

B1: recombinant hAIM-A1 protein, containing […] of human VWF (domain or fragment)
chain: not shown
On to B1, for which the binding result is “binds”.
